Measurements from PubChem BioAssay AID504339 (National Center for Advancing Translational Sciences (NCATS), 2011).
About 17,000 (4.4%) of roughly 390,000 compounds were called active. This list was built around the results that the source calls inconclusive (neither active nor inactive); the mix of calls is not that of the screen. Calls come from the whole dose curve; as a rule, active = well fitted inhibition curve with a large enough effect; inconclusive = small, poorly fitted or top-dose-only effect; inactive = no such curve, though single readings can be large or run the other way. Potencies beside an inconclusive call are fits to weak or partial responses and may not hold up.

The molecules below were run against Lysine-specific demethylase 4A (Homo sapiens) (UniProt O75164) (assay: qHTS Assay for Inhibitors of JMJD2A-Tudor Domain). Settings: AlphaScreen JMJD2A-Tudor / H3K4me3 peptide binding; activity change, negative = inhibition: at 114 µM (top of the series).
Sequence of UniProt O75164 (O75164 whole entry, looked up, the tested form may be a part): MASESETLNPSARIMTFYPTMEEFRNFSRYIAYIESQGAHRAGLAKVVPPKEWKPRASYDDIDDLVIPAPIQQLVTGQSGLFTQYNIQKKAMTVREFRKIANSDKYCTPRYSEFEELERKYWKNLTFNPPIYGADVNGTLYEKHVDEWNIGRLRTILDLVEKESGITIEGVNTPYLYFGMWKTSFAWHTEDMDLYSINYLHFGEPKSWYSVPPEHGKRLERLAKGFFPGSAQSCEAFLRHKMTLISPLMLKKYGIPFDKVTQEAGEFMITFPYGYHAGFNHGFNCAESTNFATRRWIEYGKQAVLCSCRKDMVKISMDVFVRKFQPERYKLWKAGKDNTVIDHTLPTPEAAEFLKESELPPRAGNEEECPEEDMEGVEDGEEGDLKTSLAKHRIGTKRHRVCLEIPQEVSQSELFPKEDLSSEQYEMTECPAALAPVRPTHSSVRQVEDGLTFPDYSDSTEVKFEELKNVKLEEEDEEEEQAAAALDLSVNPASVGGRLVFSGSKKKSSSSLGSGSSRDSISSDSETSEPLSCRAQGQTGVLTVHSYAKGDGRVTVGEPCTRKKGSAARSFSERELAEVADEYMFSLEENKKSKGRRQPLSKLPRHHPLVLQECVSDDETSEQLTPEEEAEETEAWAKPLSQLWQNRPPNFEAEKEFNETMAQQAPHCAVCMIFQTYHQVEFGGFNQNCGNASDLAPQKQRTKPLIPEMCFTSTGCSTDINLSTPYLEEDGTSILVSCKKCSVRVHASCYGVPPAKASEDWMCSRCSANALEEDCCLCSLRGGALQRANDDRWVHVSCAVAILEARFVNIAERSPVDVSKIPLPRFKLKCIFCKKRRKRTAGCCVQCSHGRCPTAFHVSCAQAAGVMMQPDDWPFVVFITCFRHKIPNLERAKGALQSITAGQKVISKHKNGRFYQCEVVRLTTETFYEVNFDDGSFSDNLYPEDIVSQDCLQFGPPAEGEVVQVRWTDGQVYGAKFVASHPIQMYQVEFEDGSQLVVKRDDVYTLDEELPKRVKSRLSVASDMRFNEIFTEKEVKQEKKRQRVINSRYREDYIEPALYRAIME
% is set by controls: 0 for no effect and ±100 for the full control effect; potency is the fitted concentration of half-maximal effect; tags give direction and shape of the fitted curve.
Note: nearly all actives have a fitted effect of over 50% in size.

Row | Compound | Potency | activity change, negative = inhibition
1 | CCn1c(C)nc2cc(C(=O)N/N=C/c3ccc(O)c(O)c3O)ccc21 | active: 6.31 µM | 
2 | COc1ccc(CCNC(=O)c2ccc3nc(N4CCCCC4)sc3c2)cc1OC |  | inactive: -32.4%
3 | O=[N+]([O-])c1ccc(/C=N\NS(=O)(=O)c2ccc(F)cc2)o1 | inconclusive: 31.6 µM [inhibitor, full curve] | 
4 | CC(=N\O)/C(CN(C)C)=N/O | active: 79.4 µM | 
5 | COc1cc(/C=N/NC(=O)C(=O)NCc2ccco2)cc(Cl)c1O | inconclusive: 79.4 µM [inhibitor, partial curve, poor fit] | 
6 | O=C(Cn1c(=O)c(CNc2ccccc2)cc2cc3c(cc21)OCCO3)Nc1ccccc1Cl | inconclusive: 89.1 µM [inhibitor, partial curve, poor fit] | 
7 | COc1ccc(/C=N/Nc2cc(C)nc(-n3nc(C)cc3C)n2)c(OC)c1 | inconclusive: 63.1 µM [inhibitor, partial curve, poor fit] | 
8 | Cc1ccc(-c2cccc(NC(=O)C3C4C=CC(C4)C3C(=O)O)c2)o1 (stereo unspecified) |  | inactive: -32.9%
9 | COCCNCCCCOc1ccccc1-c1ccccc1 | active: 3.16 µM | 
10 | O=C(NC1CCCCC1)C(c1ccc2ncccc2c1)N(Cc1ccco1)C(=O)c1ccc2c(c1)OCCO2 (stereo unspecified) | inconclusive: 79.4 µM [inhibitor, partial curve] | 
11 | O=C(NCc1ccco1)Nc1cccs1 |  | inactive: -16.1%
12 | O=C(c1cnn(C(=O)COc2ccc(Cl)cc2)c1)c1ccccc1O | inconclusive: 70.8 µM [inhibitor, single point] | 
13 | Cc1ccc(-n2c(CCc3ccccc3)n[nH]c2=S)cc1C | inconclusive: 17.8 µM [inhibitor, partial curve, poor fit] | 
14 | NC(=O)CSc1nc(-c2ccccc2)c(-c2ccccc2)o1 | inconclusive: 44.7 µM [inhibitor, partial curve] | 
15 | CCOC(=O)C1(Cc2cccc(Cl)c2)CCCN(C(=O)c2ccnn2C)C1 (stereo unspecified) |  | inactive: -11%
16 | S=c1[nH]ncn1/N=C/c1cccc(Oc2ccccc2)c1 | active: 44.7 µM | 
17 | Cc1ccc(S(=O)(=O)NCC(c2ccco2)N2CCc3ccccc32)cc1 (stereo unspecified) | inconclusive: 22.4 µM [inhibitor, full curve] | 
18 | O=[N+]([O-])c1cc(C(F)(F)F)ccc1NCCCCNS(=O)(=O)c1ccc(Cl)cc1 | inconclusive: 11.2 µM [inhibitor, full curve] | 
19 | O=c1[nH]c2cc(Cl)c(Br)cc2o1 |  | inactive: -10.4%
20 | Cc1ccc(SSc2cc(C)ccc2N)c(N)c1 | active: 7.94 µM | 
21 | O=C(c1ccco1)N1CCN(Cc2cccc3ccccc23)CC1 | active: 22.4 µM | 
22 | CCCCOc1ccc(C(=O)NCc2cn3cccc(C)c3n2)cc1 |  | inactive: -7.28%
23 | CC1(C)CC(=O)C(C=Nc2ccc3cn[nH]c3c2)=C(O)C1 |  | inactive: -1.66%
24 | O=C1N2CCCc3cccc(c32)C12Nc1ccccc1S2 (stereo unspecified) | inconclusive: 63.1 µM [inhibitor, partial curve, poor fit] | 

Row | Compound | Potency | activity change, negative = inhibition
25 | CCOC(=O)c1ccccc1NC(=O)CN1C(=O)CC(c2ccccc2)Sc2ccccc21 (stereo unspecified) |  | inactive: -20.4%
26 | CC(C)N1CCC(=NNc2ccc([N+](=O)[O-])cc2S(=O)(=O)N2CCOCC2)CC1 | inconclusive: 50.1 µM [inhibitor, partial curve] | 
27 | Cn1cnc([N+](=O)[O-])c1Sc1ccc(C(C)(C)C)cc1 | inconclusive: 56.2 µM [inhibitor, partial curve] | 
28 | COCCCNCC(=O)c1c(N)n(Cc2ccccc2)c(=O)n(C)c1=O | active: 79.4 µM | 
29 | Cc1nnc(SCC(=O)NC(=O)NC(C)(C)C)n1N | inconclusive: 39.8 µM [inhibitor, single point] | 
30 | Cc1cc(/C=N/NC(=O)c2cccs2)c(C)n1-c1ccccc1 | inconclusive: 50.1 µM [inhibitor, partial curve] | 
31 | CCOC(=O)N1CCC2(CC1)C(C#N)=C(N)Oc1c2c(C)nn1-c1cccc(Cl)c1 | inconclusive: 79.4 µM [inhibitor, partial curve] | 
32 | CN(C)C=NC1=NN(c2cccc(C(F)(F)F)c2)CC1 | inconclusive: 89.1 µM [inhibitor, partial curve] | 
33 | CC(C(=O)Nc1ccc(OC(F)(F)F)cc1)N1Cc2ccccc2C1=O (stereo unspecified) |  | inactive: -10.6%
34 | CCC1Sc2ccc(S(=O)(=O)N3CCN(c4ccccc4)CC3)cc2NC1=O (stereo unspecified) | active: 12.6 µM | 
35 | Cc1ncc2c(n1)-c1cc(F)ccc1SC2 |  | inactive: 5.63%
36 | OC(COCc1cccs1)CN1CCCCCC1 (stereo unspecified) | inconclusive: 79.4 µM [inhibitor, single point] | 
37 | C[C@@H](C(=O)Nc1ccc2ccccc2c1)[C@@H]1C[C@@]1(C)[C@@H](NC(=O)c1cnccn1)c1ccccc1 |  | inactive: -11.4%
38 | CC(C)(C)c1ccc(Oc2coc3cc(OCC(=O)O)ccc3c2=O)cc1 | inconclusive: 0.631 µM [inhibitor, full curve, poor fit] | 
39 | CNC(=O)/C(C#N)=C\c1ccc(CNS(=O)(=O)c2ccc(Cl)cc2)o1 |  | inactive: -17.3% [at 11.4 µM]
40 | O=C(O)c1ccc(N/N=C/c2cn(Cc3ccc(F)cc3)c3ccccc23)cc1 | active: 56.2 µM | 
41 | Cc1cccc(N2CCN(S(=O)(=O)c3cc(C(=O)Nc4ccc(Oc5ccccc5)cc4)ccc3F)CC2)c1C |  | inactive: -22%
42 | COc1ccc(NC(=O)C2=CC(c3ccc(C)cc3)=NS(=O)(=O)N2C)cc1 | inconclusive: 39.8 µM [inhibitor, partial curve] | 
43 | O=C(O)c1cc(N(Cc2ccccc2O)Cc2ccccc2O)ccc1O | active: 50.1 µM | 
44 | CC(=O)Nc1sc2c(c1CN1CCN(c3ccc(F)cc3)CC1)CCCC2 | inconclusive: 28.2 µM [inhibitor, full curve] | 
45 | CCOC(=O)N1CCN(C(=O)CCC(=O)N2CCOc3ccc(C)cc32)CC1 | inconclusive: 20 µM [inhibitor, partial curve] | 
46 | Cc1cc(C)nc(N2CCCC(C(=O)NCCC3=CCCCC3)C2)n1 (stereo unspecified) | inconclusive: 100 µM [inhibitor, single point] | 
47 | COc1ccc(CN(Cc2ccccc2)C(=O)C2CC2)cc1COc1ccc(NC(C)=O)cc1 | inconclusive: 50.1 µM [inhibitor, partial curve] | 
48 | CCOC(=O)c1ccc(-n2c(CCC(=O)O)ccc2-c2ccccc2)cc1 | inconclusive: 50.1 µM [inhibitor, partial curve] | 

Row | Compound | Potency | activity change, negative = inhibition
49 | COc1ccc(/C=C2\SC(=S)N(CCC(=O)Nc3cccc(C(=O)O)c3)C2=O)cc1OC | inconclusive: 31.6 µM [inhibitor, full curve] | 
50 | COc1ccc(-c2nc3c(c4nnc(SC(C)C(=O)Nc5ccc(C)cc5)n24)COC(C)(C)C3)cc1 (stereo unspecified) | inconclusive: 79.4 µM [inhibitor, single point] | 
51 | O=C(COC(=O)CNC(=O)c1ccccc1Cl)Nc1ccccc1Cl | inactive | 
52 | O=C(COC(=O)c1c2c(nc3ccccc13)/C(=C\c1ccco1)CC2)NC1CCCC1 | inconclusive: 56.2 µM [inhibitor, partial curve, poor fit] | 
53 | Cc1cccc(C)c1C(OCCN(C)C)C1CCCCC1 (stereo unspecified) | active: 14.1 µM | 
54 | CCCCC1=CC2=C(c3ccco3)C(=O)C(C)(OC(=O)c3ccc(OC)cc3)C(=O)C2=CN1Cc1ccco1 (stereo unspecified) | inconclusive: 50.1 µM [inhibitor, partial curve] | 
55 | COc1ccc(N2CCN(S(=O)(=O)c3ccc(-c4ccno4)cc3OC)CC2)cc1 | inconclusive: 39.8 µM [inhibitor, partial curve] | 
56 | CC(=O)N1CCN(c2ccc(NCc3ccc(Br)o3)cc2)CC1 | inconclusive: 79.4 µM [inhibitor, partial curve] | 
57 | C(=N\NC1=NCCN1)/c1ccncc1 | inconclusive: 89.1 µM [inhibitor, single point] | 
58 | CCC(C)C(=O)Nc1nc(C)c(-c2csc(Nc3ccc(Cl)cc3)n2)s1 (stereo unspecified) | inconclusive: 35.5 µM [inhibitor, partial curve, poor fit] | 
59 | CCOc1c(Br)cc(C2CC(=O)Nc3cc4c(cc32)OCO4)cc1OC (stereo unspecified) | inconclusive: 39.8 µM [inhibitor, partial curve] | 
60 | COc1ccc(NS(=O)(=O)c2ccc(NC(=S)NC(=O)c3ccc(Br)cc3)cc2)nn1 | inconclusive: 79.4 µM [inhibitor, partial curve] | 
61 | CN1CCN(C(=O)CSc2nc(-c3cccs3)ccc2C#N)CC1 | inconclusive: 89.1 µM [inhibitor, single point] | 
62 | COc1cc2c(cc1OC)C(c1cccs1)N(C(=O)c1cccc(S(=O)(=O)N(C)C)c1)CC2 (stereo unspecified) | inconclusive: 25.1 µM [inhibitor, full curve, poor fit] | 
63 | Cc1ccc(C(OCC(O)CNCc2ccc(F)cc2)c2ccccc2)cc1 (stereo unspecified) | active: 79.4 µM | 
64 | COc1ccc(-c2nc3cc(C)ccn3c2NC2CCCCC2)cc1SC1CCCCC1 | inconclusive: 39.8 µM [inhibitor, partial curve] | 
65 | COc1ccc2c(-c3ccccc3)cc(N3CCOCC3)nc2c1 | active: 1.26 µM | 
66 | CCc1ccc(C(=O)COC(=O)CNC(=O)c2ccc(N3C(=O)c4ccccc4C3=O)cc2)cc1 |  | inactive: -14.1%
67 | O=C(Nc1cccc(Cl)c1N1CCCC1)c1ccc(Br)o1 |  | inactive: 1.8%
68 | COCCN(Cc1ccco1)C(=O)c1cc2c(=O)[nH]c3ccc(C)cc3c2s1 |  | inactive: -12.7%
69 | Cc1ccc(C2/C(=C(/O)c3ccc4c(c3)CC(C)O4)C(=O)C(=O)N2CCCn2ccnc2)cc1 (stereo unspecified) |  | inactive: 11.3%
70 | CN(C)c1ccc(Nc2nc(N)c3ccccc3n2)cc1 | active: 39.8 µM | 
71 | O=C(NCCCN1CCCCC1)C1CCN(c2ncnc3c2nc2n3CCCCC2)CC1 | inconclusive: 15.8 µM [inhibitor, full curve, poor fit] | 
